Hit rate of the full screen: of about 310,000 compounds, about 14,000 (4.5%) showed an effect of 50% or more. The effect is printed as a negative number. The list shows a part of the results.
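Note: peak tail current of the secondary pulse compared with the same well before compound.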

Sequence of human ether-à-go-go-related gene (hERG) potassium channel (Q12809 whole entry, looked up): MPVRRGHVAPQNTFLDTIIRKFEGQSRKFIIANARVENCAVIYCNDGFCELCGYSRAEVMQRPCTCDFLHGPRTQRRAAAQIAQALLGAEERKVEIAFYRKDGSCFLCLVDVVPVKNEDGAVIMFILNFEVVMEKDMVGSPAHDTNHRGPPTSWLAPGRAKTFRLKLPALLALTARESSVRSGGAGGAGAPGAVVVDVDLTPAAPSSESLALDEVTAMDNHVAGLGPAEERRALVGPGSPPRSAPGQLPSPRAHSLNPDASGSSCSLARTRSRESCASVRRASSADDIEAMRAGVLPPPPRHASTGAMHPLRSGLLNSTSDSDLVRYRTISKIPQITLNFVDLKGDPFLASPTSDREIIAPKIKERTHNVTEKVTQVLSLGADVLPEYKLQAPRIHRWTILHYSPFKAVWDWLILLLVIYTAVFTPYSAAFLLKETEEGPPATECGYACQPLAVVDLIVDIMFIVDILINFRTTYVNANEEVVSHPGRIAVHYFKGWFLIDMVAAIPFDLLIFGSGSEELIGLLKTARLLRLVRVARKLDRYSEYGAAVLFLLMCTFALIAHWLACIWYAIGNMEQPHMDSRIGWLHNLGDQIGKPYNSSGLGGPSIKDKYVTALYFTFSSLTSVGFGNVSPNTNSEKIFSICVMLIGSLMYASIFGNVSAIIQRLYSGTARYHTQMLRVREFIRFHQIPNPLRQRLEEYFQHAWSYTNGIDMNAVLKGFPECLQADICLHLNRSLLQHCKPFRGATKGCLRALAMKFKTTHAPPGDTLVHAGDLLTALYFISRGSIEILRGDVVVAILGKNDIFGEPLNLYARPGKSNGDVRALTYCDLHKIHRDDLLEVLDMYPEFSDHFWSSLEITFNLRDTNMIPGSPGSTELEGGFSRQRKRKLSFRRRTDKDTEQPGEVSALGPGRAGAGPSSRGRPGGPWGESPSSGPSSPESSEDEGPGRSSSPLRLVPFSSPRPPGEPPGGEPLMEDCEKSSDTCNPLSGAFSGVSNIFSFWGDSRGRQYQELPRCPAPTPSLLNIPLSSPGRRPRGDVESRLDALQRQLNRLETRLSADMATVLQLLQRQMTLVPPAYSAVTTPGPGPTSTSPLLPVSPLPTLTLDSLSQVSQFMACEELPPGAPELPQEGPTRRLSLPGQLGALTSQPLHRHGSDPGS

This assay concerns the target human ether-à-go-go-related gene (hERG) potassium channel (human, UniProt Q12809). The assay can be described thus: primary screen, population patch clamp on CHO cells stably expressing hERG.
Regarding `S=C(NCc1cccs1)Nc1ccc(Cl)cc1`, the “hERG current change (%, negative = inhibition) at 10uM” value was determined as 9.4%.
On to `O=C(Nc1cccc(C(F)(F)F)c1)C(Sc1n[nH]c(=O)[nH]c1=O)c1ccccc1` (stereo not drawn), for which the “hERG current change (%, negative = inhibition) at 10uM” value was -4.05%.
Then `COc1cccc(CN2CCNC(=O)C2CC(=O)NCCn2nc(C)cc2C)c1OC` (stereo not drawn), with 13.7%; and `Nc1ccc2nc(CCCCc3nc4ccccc4[nH]3)[nH]c2c1`, with 10.5%.
In the case of `CCc1noc(C)c1C(=O)Nc1nc(-c2cc(C)ccc2C)c(C)s1`, the “hERG current change (%, negative = inhibition) at 10uM” value was found to be 16.7%.
With `COC(=O)[C@@H](Cc1c[nH]c2ccccc12)NC(=O)CCC(=O)c1ccc(F)cc1`, the “hERG current change (%, negative = inhibition) at 10uM” value is on record as 7.13%.
Then `CCOc1ccc(C(C)NC(=O)c2cc(=O)[nH]c3ccccc23)cc1OCC` (stereo not drawn), with 23.3%; and `c1ccc(NC2=NCCCCS2)cc1`, with -6.37%; and `COc1cccc(CNc2nc3nc(C)cc(=O)n3[nH]2)c1`, with -3.91%.
Then `CS(=O)(=O)CCC(C(=O)OCC(=O)c1ccc(Cl)cc1)N1C(=O)c2ccccc2C1=O` (stereo not drawn), with -19.1%; and `O=C(/C=C\c1ccco1)c1ccc(NC(=O)c2ccco2)cc1`, with 14.2%.
Then `CN(C)CCN1CC(O)=C(c2nc3ccccc3s2)C1=N`, with -13.7%.
In the case of `O=C(NN1CC(C(=O)OCc2ccc(Cl)cc2Cl)CC1=O)c1ccccc1` (stereo not drawn), the “hERG current change (%, negative = inhibition) at 10uM” value is -16.5%.
As for `COc1ccc(NC(=O)C(=O)NCCO)cc1Cl`, the “hERG current change (%, negative = inhibition) at 10uM” value came to 13.2%.
For the compound `CCOc1ccc(NC(=O)CN(C)C(=O)CCCn2c(=O)oc3ccccc32)cc1OCC`, the “hERG current change (%, negative = inhibition) at 10uM” value was -36.7%.
Take `CN1CCN(c2ccccc2NC(=O)c2cccc([N+](=O)[O-])c2)CC1`: the “hERG current change (%, negative = inhibition) at 10uM” value is recorded as -80.1%.
The result for `COc1ccc(CCN(C)C(=O)c2cc(-c3ccc(C)cc3)nc3ccccc23)cc1OC` reads -26.7%; that for `C=CCn1c(SCC(=O)Nc2cc(C)on2)nc2c([nH]c3ccccc32)c1=O`, 9.49%; that for `COc1ccc(S(=O)(=O)N(C)C)cc1NC(=O)CSc1nncs1`, 35.5%.
The result for `Cc1ccc(C(=O)OCC(=O)Nc2sc3c(c2C#N)CCCC3)cc1NC(=O)c1ccco1` reads 2.78%; that for `CC(=O)CC[C@@H](C)O[C@@H]1OC(C)[C@H](O)CC1O` (stereo partly drawn), 20.2%; that for `CC(C)CNC(=O)NC1C(NC(=O)NCC(C)C)N(C)C(=O)N1C` (stereo not drawn), 3.82%.
The result for `CN(CCC#N)C(=O)COC(=O)c1cccnc1Nc1ccccc1F` reads -13.8%.
Consider `O=C(O)C1CCCN(S(=O)(=O)c2ccccc2)C1` (stereo not drawn), for which the “hERG current change (%, negative = inhibition) at 10uM” value is 18.3%.

The values are drawn from article PMC4336329 (PLoS ONE, 2015).
